{"source": "paper PMC10726135", "note": "The list shows a part of the results. At the low end of the ranking, values are background and their order means little. Measured with an extract: partners may take part in the binding.", "data": [{"biological_target": "T1, HNF4alpha2 (COS-7 nuclear extract) (UniProt P41235)", "T1 sequence": "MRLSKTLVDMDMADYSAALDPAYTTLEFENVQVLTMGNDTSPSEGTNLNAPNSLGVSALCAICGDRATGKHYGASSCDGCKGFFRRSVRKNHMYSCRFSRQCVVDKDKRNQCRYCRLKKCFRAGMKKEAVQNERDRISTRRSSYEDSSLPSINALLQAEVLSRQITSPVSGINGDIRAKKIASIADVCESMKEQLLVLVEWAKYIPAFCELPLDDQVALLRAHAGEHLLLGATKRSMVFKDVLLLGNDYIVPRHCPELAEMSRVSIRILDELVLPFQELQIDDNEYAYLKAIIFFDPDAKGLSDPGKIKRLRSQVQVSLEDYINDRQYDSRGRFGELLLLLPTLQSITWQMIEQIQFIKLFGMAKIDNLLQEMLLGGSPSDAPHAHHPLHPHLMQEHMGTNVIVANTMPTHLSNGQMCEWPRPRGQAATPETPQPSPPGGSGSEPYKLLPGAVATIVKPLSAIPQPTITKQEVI", "assay": "protein-binding microarray", "details": "COS-7 nuclear extract on double-stranded Agilent 4x180k PBM; binding buffer, salt, pH and temperature not given; high values mean tight binding; double strand, one strand shown; sequences stand for … in …GCCTAGGGAGATTAGAGTATCGGTCGA", "values": [{"sequence": "TCTGACTGCACTGCAATGACAATAAATTAT", "binding signal (log2 normalized intensity)": -0.0668}, {"sequence": "TTAAGGGCAAAGGTTACAATTGTCCCCAAG", "binding signal (log2 normalized intensity)": 4.93}, {"sequence": "GTGCAACAGGAGCCCAGAGACAGTGGAATC", "binding signal (log2 normalized intensity)": -1.07}, {"sequence": "TAATCTGGCTCCAAAGTCTATGTGTGCTTT", "binding signal (log2 normalized intensity)": 2.24}, {"sequence": "GTCTCATTGCCCCTTGAGCTAAATAATTAC", "binding signal (log2 normalized intensity)": 2.08}, {"sequence": "ACTTCATCTAAGTGGGTCTAGGTTCTGGGG", "binding signal (log2 normalized intensity)": 0.826}, {"sequence": "GGAGCCACTGCAGCTTTCTGAGTAGGACAG", "binding signal (log2 normalized intensity)": -1.06}, {"sequence": "AGTCGACCCTCTCTGGATGCAGGTCGCCGG", "binding signal (log2 normalized intensity)": 0.254}, {"sequence": "TCTGTTAGGAATGTCATGCAGCTAAAAGCA", "binding signal (log2 normalized intensity)": -0.979}, {"sequence": "ATGCATTCCATATGGATTAAATCTTGTTGG", "binding signal (log2 normalized intensity)": 1.49}, {"sequence": "AGATTACAGCCACATGCTAACACACCTGGC", "binding signal (log2 normalized intensity)": -1.1}, {"sequence": "CACTCATGGTGTTTGCTTTGTGAAGGCTTA", "binding signal (log2 normalized intensity)": 1.28}, {"sequence": "GTCTCTTCCACCTGGAATGCACTTGTTCCG", "binding signal (log2 normalized intensity)": 0.61}, {"sequence": "CCAAGAGCTTAACCTTTGCCATGTGACAAT", "binding signal (log2 normalized intensity)": 1.97}, {"sequence": "CTCCTGCAGACCCTATTGGGCTAGCCGCTC", "binding signal (log2 normalized intensity)": -1.21}, {"sequence": "TCTTACTGTGTTGTCGTATTTACTCTAGAA", "binding signal (log2 normalized intensity)": 1.36}, {"sequence": "GCCTCCCCCTTCTGAGTCTCCAATGTCCAT", "binding signal (log2 normalized intensity)": 2.29}, {"sequence": "AAGTCTGTTTATCCTGCCTCCATTAATTAA", "binding signal (log2 normalized intensity)": 0.518}, {"sequence": "CAGGAATATCAACAGGAGCAAATATCGCTT", "binding signal (log2 normalized intensity)": -1.14}, {"sequence": "AAGGTTAGGGGGATTCTGGCTAAACCAGCC", "binding signal (log2 normalized intensity)": -1.08}, {"sequence": "CCTGTCAGTCTCTCAATGATTGACAGGTTA", "binding signal (log2 normalized intensity)": -0.854}, {"sequence": "TTTCCAGTTAGGCAGGATGGGGTCATGATA", "binding signal (log2 normalized intensity)": 2.47}, {"sequence": "CCCAAGTAGAGAGCAGTCCTGCACATGAAT", "binding signal (log2 normalized intensity)": -1.16}, {"sequence": "AAAAAAAAAAAAAAGGCAGTCCTTAGATCC", "binding signal (log2 normalized intensity)": -1.09}, {"sequence": "CTTTGAACCAGATGGCCCTCTCCAAGGCGG", "binding signal (log2 normalized intensity)": -1.05}, {"sequence": "CTTTCATGCCGGCGTGACCCCCACTGCCTG", "binding signal (log2 normalized intensity)": 4.24}, {"sequence": "ATTGCAGACAGCATAGGAAGTGGGGAAGAA", "binding signal (log2 normalized intensity)": -1.2}, {"sequence": "TTTTAATTAGAACTGTAATTGAGTAACCAG", "binding signal (log2 normalized intensity)": 1.36}, {"sequence": "AGACAGGAGTAGTCAAATTTGTCTAGCGCA", "binding signal (log2 normalized intensity)": -1.12}, {"sequence": "CCTGTGGCCACAGAGCGCCTAACTATTTTG", "binding signal (log2 normalized intensity)": -1.12}, {"sequence": "GATCACCTGGTGGCCATCAAGCAGATCATC", "binding signal (log2 normalized intensity)": -1.11}, {"sequence": "GAACTTTGATCAGCATTCAAATGAGGGCAG", "binding signal (log2 normalized intensity)": 3.19}, {"sequence": "TTTCTTTCTTTTCCCAAACCACGTTTCTGT", "binding signal (log2 normalized intensity)": 1.61}, {"sequence": "CCTGGGAATGCCTAGGGGGAAGCCCCTGCT", "binding signal (log2 normalized intensity)": -1.19}, {"sequence": "GCCCTAGGAATCCTGACCAGGGGCCAGCAA", "binding signal (log2 normalized intensity)": -1.06}, {"sequence": "GTCCCACCTGAGGCCAAGCAGCTGTGATGA", "binding signal (log2 normalized intensity)": -0.762}, {"sequence": "GCTAATCCTACTTTATCTAAGTAAACTAGT", "binding signal (log2 normalized intensity)": -0.824}, {"sequence": "CCGCACAGTGCAAACACACAATATTGACAT", "binding signal (log2 normalized intensity)": -1.04}, {"sequence": "GAGGCTTATTCCGTACAAGGATTCATTTCC", "binding signal (log2 normalized intensity)": -0.894}, {"sequence": "GAGATCAGAGGAGGCACTTGTCTCACATCT", "binding signal (log2 normalized intensity)": -0.934}, {"sequence": "AGGCATTTCTGGAATTCTCTTCCCAACAGG", "binding signal (log2 normalized intensity)": -1.14}, {"sequence": "CGGCTGAGCGGCCTTCGCACCTGCCTGTCT", "binding signal (log2 normalized intensity)": -1.18}, {"sequence": "TCCTTTTTGGCCAGCCCCGGGAATTCTGGG", "binding signal (log2 normalized intensity)": -1.19}, {"sequence": "TGGAAGAAGCGGTTCTGCAGGTTCATGGGA", "binding signal (log2 normalized intensity)": 0.86}, {"sequence": "ACCACTCTTTCAGGGTGGGAAAGGAATGTA", "binding signal (log2 normalized intensity)": -0.0895}, {"sequence": "GGCTAATTACATCCAGAGTGGGACAAAGTT", "binding signal (log2 normalized intensity)": 0.11}, {"sequence": "GGGTCATTAATTCCCAGGAATTGGCCTGTG", "binding signal (log2 normalized intensity)": -0.031}, {"sequence": "GAATGCCTGGGTCAAATTGGTGCTTTCATC", "binding signal (log2 normalized intensity)": 0.658}, {"sequence": "TTGTATGGTTTTGTGCTAGAAAGAATGAGA", "binding signal (log2 normalized intensity)": 0.943}, {"sequence": "CCCCTTTTAATACAAGTATTATCTTCCATT", "binding signal (log2 normalized intensity)": 0.0533}, {"sequence": "CCACAAAGTCTTAGCTCATTTCAGCCTTAA", "binding signal (log2 normalized intensity)": -0.629}, {"sequence": "ATGCCGGCGTGACCCCCACTGCCTGCCTGC", "binding signal (log2 normalized intensity)": 3.81}, {"sequence": "GCCAAAGTTCAACCATACACACATTCCAAT", "binding signal (log2 normalized intensity)": 0.406}, {"sequence": "AACCTTTGCCCCAGCTGTCACCCAGCCAGA", "binding signal (log2 normalized intensity)": 3.68}, {"sequence": "AAAAGATAAGGACACAAGTGTCAGAGCAGG", "binding signal (log2 normalized intensity)": -1.06}, {"sequence": "TGAGTCCCCCGGCTCTACGCAAGTGGTACC", "binding signal (log2 normalized intensity)": 2.76}, {"sequence": "TGACAAACATGTATCAGTGATAGACTAACT", "binding signal (log2 normalized intensity)": -0.909}, {"sequence": "TAGAGCTGCTTACATTTTGCTCTGTTGTGT", "binding signal (log2 normalized intensity)": 1.27}, {"sequence": "CGCGTCCTCGGCTCTGCGCAGGCGCAGTCC", "binding signal (log2 normalized intensity)": -1.1}, {"sequence": "GTGTTGAGAATCCCTCCCCTGTGCAAACTT", "binding signal (log2 normalized intensity)": 3.12}, {"sequence": "CTTCTTTGAAAGTTTGGTGGACTTTGGCCG", "binding signal (log2 normalized intensity)": 9.62}, {"sequence": "TTAAGTCAAAATATAAGGTCCAACTGACAT", "binding signal (log2 normalized intensity)": 1.26}, {"sequence": "CTTTGAGCCAGAATCTGTCAGCTGCCTTTC", "binding signal (log2 normalized intensity)": -1.05}, {"sequence": "TACTTATGTCTCCAGAAACCAACCTTTGAT", "binding signal (log2 normalized intensity)": 3.32}, {"sequence": "CTAAGATTTATAAAGGGCAGCAAGTATTCA", "binding signal (log2 normalized intensity)": 0.696}, {"sequence": "GCCTGGACAGATAAGAAGGGGTCAGACCAG", "binding signal (log2 normalized intensity)": 1.84}, {"sequence": "GGCTCCTATTTCTGGCCCTGCAATTTGATT", "binding signal (log2 normalized intensity)": -0.239}, {"sequence": "CCTGGATCTTCCAGGCCTCCAGCTCTTTTG", "binding signal (log2 normalized intensity)": -1.15}, {"sequence": "AGAATGTGGTTCTTTTCATTAAATATTTAA", "binding signal (log2 normalized intensity)": 1.45}, {"sequence": "CTCAGAGGACCTGACATTCTCCACTTGGTG", "binding signal (log2 normalized intensity)": -1.13}, {"sequence": "GACCTTTGTTTTATTGTCATGCTGATATTC", "binding signal (log2 normalized intensity)": 2.93}, {"sequence": "CATCGCAGAAAGCTCTTTGCACAGTACTGA", "binding signal (log2 normalized intensity)": -1.06}, {"sequence": "GGGTTCAAGCTTGATCCAGGATCCTTCTTG", "binding signal (log2 normalized intensity)": -0.177}, {"sequence": "GCAGGCTCAGAACTACCAATGTTTACCAGC", "binding signal (log2 normalized intensity)": -1.15}, {"sequence": "TCCAACCCACAGGGGTAGAAGCTGAGCAGC", "binding signal (log2 normalized intensity)": -1.1}, {"sequence": "TGCTTGTGTTGGAGCATTAGTTGACCATTG", "binding signal (log2 normalized intensity)": 2.03}, {"sequence": "CAAACTATAGATTTGTGATGAGAATAAATT", "binding signal (log2 normalized intensity)": -0.065}, {"sequence": "CTAGCAAAAATCCTGCCAAACCAGTTCAAC", "binding signal (log2 normalized intensity)": -1.15}, {"sequence": "TTACTCACCTGATTCAATGTCTGGAAGTTC", "binding signal (log2 normalized intensity)": 1.3}, {"sequence": "CTTAGGGAGGGTGAAGGTCACAATTTCCAG", "binding signal (log2 normalized intensity)": 2.74}, {"sequence": "ACTGAGGCTCAATGAGGTCAATAGTCCAGA", "binding signal (log2 normalized intensity)": 4.35}, {"sequence": "CTTATCAGCAGCTGGGGTGACTGATTGGAG", "binding signal (log2 normalized intensity)": 1.01}, {"sequence": "ACACAGACAAAGACAGAGAGGCTTCCCTTT", "binding signal (log2 normalized intensity)": -1.1}, {"sequence": "TGAAGGAACAGGTTCAGATAAGACAAGCTC", "binding signal (log2 normalized intensity)": -0.993}, {"sequence": "GGAAAGCTGAGGCCCAGGAAGCTCCAGCGG", "binding signal (log2 normalized intensity)": -0.901}, {"sequence": "GGCTGGGGCCCTCTTCCAGCTGAGACAAGG", "binding signal (log2 normalized intensity)": -1.1}, {"sequence": "GTATATCCTGACACAGGAAGGGGGATGTCT", "binding signal (log2 normalized intensity)": -0.918}, {"sequence": "CTTATCATGCTGTCTCTGAAAGCAAACAAT", "binding signal (log2 normalized intensity)": -0.84}, {"sequence": "AGGAGCAGGAGCAGAAGCAGGCCTCGGGCC", "binding signal (log2 normalized intensity)": -1.07}, {"sequence": "GCCAAGGGCAGTGTTTGCCCAGCTTGAATC", "binding signal (log2 normalized intensity)": -1.08}, {"sequence": "CGGGCACTGATAACGCCCGCCTAACCTTGA", "binding signal (log2 normalized intensity)": -1.19}, {"sequence": "CAGCTTATCTGTCCATCCCTCACTCCTGTC", "binding signal (log2 normalized intensity)": -0.54}, {"sequence": "GGGAATGTGGGTCCACATTCCTGATGCTAG", "binding signal (log2 normalized intensity)": 0.438}]}]}
